# Reference: the supplement of paper PMC4604168 (melanoma cell lines)
# Some of the results follow. Most values come without repeats; read them as rough.
# Test system: A101D
# Test: cell count relative to DMSO control; melanoma cells; higher = more viable cells
# Details: library dose: standard library concentration; 72 h
# 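Further: cells treated in 1,536-well plates, then fixed and DAPI-stained, with nuclei counted from automated high-throughput microscope images.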
row,Structure (SMILES),cell count [%]
1,"O=C(Nc1cc(C(F)(F)F)cc(C(F)(F)F)c1)c1cc(Cl)ccc1O + CCCCCCCCCCCCCCCCCCOP(=O)([O-])OC1CC[N+](C)(C)CC1 [Perifosine] (first compound 0.08 µM, partner dose 2 µM)",88.1
2,"O=C(Nc1cc(C(F)(F)F)cc(C(F)(F)F)c1)c1cc(Cl)ccc1O + C#Cc1cccc(Nc2ncnc3cc(OCCOC)c(OCCOC)cc23)c1 [erlotinib] (first compound 0.08 µM, partner dose 4 µM)",65.9
3,"Cn1nnc2c(C(N)=O)ncn2c1=O [temozolomide] + OCCn1cc(-c2cnc3nnn(Cc4ccc5ncccc5c4)c3n2)cn1 [PF04217903] (first compound 10 µM, partner dose 5 µM)",83.3
4,"O=C(O)[C@@H]1[O][Sb](=[O])([O][Sb]2(=[O])[O][C@H]([C@H](O)CO)[C@H](O)[C@H](C(=O)O)[O]2)[O][C@H]([C@H](O)CO)[C@@H]1O (stereo partly specified) [stibogluconate] + Cn1nnc2c(C(N)=O)ncn2c1=O [temozolomide] (first compound 10 µM, partner dose 10 µM)",72.1
5,"O=C(Nc1cc(C(F)(F)F)cc(C(F)(F)F)c1)c1cc(Cl)ccc1O + COc1ccc(Cl)c(Nc2nc3ccccc3nc2NS(=O)(=O)c2cccc(NC(=O)C(C)(C)N)c2)c1 [XL147] (first compound 0.08 µM, partner dose 4 µM)",87.7
6,"O=C(Nc1cc(C(F)(F)F)cc(C(F)(F)F)c1)c1cc(Cl)ccc1O + Cc1cc(Nc2cc(N3CCN(C)CC3)nc(/C=C/c3ccccc3)n2)n[nH]1 [ENMD2076] (first compound 0.08 µM, partner dose 0.2 µM)",81.1
